Results on one protein are retold here after publication PMC4975667 (Molecular cell, 2016).

The data set concerns the molecule itself. Description: crystal structure.

B1: BAX G67R, recombinant (natural protein)
chain: not shown
As for B1, the binding result is listed as “binds”.
